From ChEMBL document CHEMBL4888484, “Replenishing the malaria drug discovery pipeline: Screening and hit evaluation of the MMV Hit Generation Library 1 (HGL1) against asexual blood stage Plasmodium falciparum ,using a nano luciferase reporter read-out” (2022) come the findings set out here.

By % Inhibition is commonly meant the drop in the measured response relative to a control, in per cent.

The structures appear in SMILES notation. Screen size: about 150,000 compounds; about 540 (0.36%) showed an effect of 50% or more. The list shows a part of the results.

The test deals with Plasmodium falciparum. The test is described as follows: Primary screen in NF54 nanoGlo assay, in single point, at 2uM, 72h; a lower Z score goes with more inhibition. The test is classed as functional, Erythrocyte. To be noted: timepoint 72 hour.
Turning to `CCCn1c(O)c(C#N)c(C)c(CN2CCCCC2)c1=O`, the “% Inhibition” value is given as -18% and the Z score is given as 2.16.
As for `CC(C1CC1)N(C)S(=O)(=O)NC1CCCc2nn(C)cc21` (configuration not stated), the “% Inhibition” value was -5% and the Z score is recorded as 0.75.
Take `CCC(C(=O)NC(COC)c1ccco1)c1ccccc1` (configuration not stated): the “% Inhibition” value came to 9% and the Z score is reported as -1.79.
As for `CCCn1nccc1C(=O)N[C@H]1CCc2c[nH]nc2C1`, the “% Inhibition” value is on record as -13% and the Z score is 2.17.
`Cc1nn(CC(=O)N2CCCC[C@@H]2CO)c(=O)n1-c1ccc2c(c1)OCO2`: the “% Inhibition” value is given as -5% and the Z score is reported as 0.53.
As for `Cc1ccc(C(O)CNC2C3CCOC3C2(C)C)cc1` (configuration not stated), the “% Inhibition” value is 1% and the Z score is given as -0.18.
With `Cc1ccc(N2C(=O)c3cc(C(C)(C)C)nn3C[C@@]2(C)C(=O)NCc2ccccc2)cc1`, the “% Inhibition” value worked out at 11% and the Z score is on record as -1.11.
Taken in the same sequence, the figures for `COc1ccc(CCNC(=O)C(=Cc2cccc(OC)c2OC)C(=O)NCCc2ccc(OC)cc2)cc1` were 6% and -0.63.
For `COc1ccc(OC)c(CNc2ncnc3onc(-c4cc(F)cc(F)c4)c23)c1`, the “% Inhibition” value is -1% and the Z score was found to be 0.18.
`COC(=O)C1COCCN1C(=O)CCOCC1CCCO1` (configuration not stated): the “% Inhibition” value was -12% and the Z score is 1.62.
Turning to `CCC(=O)N(C)c1nc2ccccc2n(CC(=O)Nc2ccc(C)cc2C)c1=O`, the “% Inhibition” value is given as 3% and the Z score was -0.47.
With `COCc1noc(CNC(=O)c2ccc(CN(C)C)o2)n1`, the “% Inhibition” value is 0% and the Z score came to 0.02.
Consider `c1csc(-c2ccc(-c3nc4c([nH]3)CCNC4)s2)c1`, for which the “% Inhibition” value came to 9% and the Z score is -1.71.
As for `COc1cc([C@H]2CC(=O)NCc3nc4ccccn4c32)cc2c1OCO2`, the “% Inhibition” value is given as -12% and the Z score is given as 1.6.
Turning to `Cc1ccccc1CCCn1ccnn1`, the “% Inhibition” value was -5% and the Z score is 1.04.
With `O=C(Nc1nncs1)c1cc(=O)c(OCc2ccc(Cl)cc2)c[nH]1`, the “% Inhibition” value came to 11% and the Z score was -1.4.
For `O=S1(=O)CCCN(Cc2ncc(Br)s2)CC1`, the “% Inhibition” value is -12% and the Z score came out at 1.92.
As to `c1cn(Cc2ccc3nsnc3c2)c(-c2cc3n(n2)CCCNC3)n1`, the “% Inhibition” value is recorded as -2% and the Z score is reported as 0.2.
With `Cn1ncc2c1CCCC2NC1CCOC2(CCCC2)C1` (configuration not stated), the “% Inhibition” value is given as -5% and the Z score stood at 0.94.
As to `O=C(NCc1ccccc1)c1ccc(COc2cccc3ccccc23)o1`, the “% Inhibition” value was -4% and the Z score was found to be 0.48.
In the case of `Cc1ccc(C(=O)N(CC(F)(F)F)[C@@H](C)C2CC2)cn1`, the “% Inhibition” value was 1% and the Z score is -0.12.
For `COc1ccc(NC(=O)Cn2nc3c(N4CCN(c5ccccc5)CC4)nccn3c2=O)cc1OC`, the “% Inhibition” value is recorded as 9% and the Z score was -0.85.
For `CNc1cc([C@H]2C[C@@H](NC(=O)c3sc(OC)nc3C)C2)nc(N)n1`, the “% Inhibition” value was 2% and the Z score was -0.18.
As for `CN1C(=O)CC[C@]2(CNC(=O)c3ccccc3F)CCC=C12`, the “% Inhibition” value was -4% and the Z score is on record as 0.65.
`COc1cccc(CNC(=O)c2coc(COc3ccccc3F)n2)c1`: the “% Inhibition” value is on record as -6% and the Z score was found to be 1.25.
`CCc1nn(-c2ccccc2)c2c1CN(C(=O)NCCC(C)C)[C@H](c1ccc(C)cc1)c1cccn1-2`: the “% Inhibition” value is reported as -8% and the Z score came out at 1.54.
Consider `O=c1scc(C(F)(F)F)n1CN1CCN(c2cccc(Cl)c2)CC1`, for which the “% Inhibition” value turned out to be 2% and the Z score is given as -0.34.
In the case of `Cn1c(CNC(=O)C2CCC2)nc2c1CN(C(=O)Nc1ccc(C(F)(F)F)cc1)CC2`, the “% Inhibition” value is given as -4% and the Z score is given as 0.52.
`COCCc1noc(CN2C[C@@H]3CC[C@H]2CN(C(=O)c2ccccc2)C3)n1`: the “% Inhibition” value is reported as -12% and the Z score is reported as 1.7.
On to `CC(O)CNC(c1ccc(Br)cc1)C1CCOCC1` (configuration not stated), for which the “% Inhibition” value was -11% and the Z score was 1.16.
With `C/C=C(\C)CN1CCC2(CC1)c1ccccc1[C@@H](NC(=O)c1cccc(F)c1)[C@@H]2OC`, the “% Inhibition” value was -8% and the Z score is 0.98.
In the same order, the values of `Cc1nn(C)c(S(=O)(=O)N2CCc3cnccc32)c1C(F)F` are -2% and 0.23.
On to `CC(C)(C)N1CC[C@H]1C(=O)NC1(c2ncccn2)CCOCC1`, for which the “% Inhibition” value came out at 0% and the Z score is reported as -0.01.
In the case of `CCCC(CCc1ccccc1)NC(=O)NC1CCN(C)C1=O` (configuration not stated), the “% Inhibition” value is recorded as -5% and the Z score is reported as 0.83.
Taken in the same sequence, the figures for `Brc1ccc(NCc2[nH]nnc2-c2ccccc2)cc1` were 39% and -1.35.
`Cc1cc2c(NCC3(CCO)CC3)nccn2n1`: the “% Inhibition” value is listed as -8% and the Z score amounted to 1.23.
Consider `COc1ccc(CCNC(=O)c2cc(OCc3ccccc3)no2)cc1`, for which the “% Inhibition” value is -10% and the Z score is 1.95.
For the compound `Cn1cc(C(=O)N2CC[C@H](N3CCOCC3)[C@H](CCCO)C2)c2ccccc21`, the “% Inhibition” value was -2% and the Z score is listed as 0.4.
`Cc1nc2ccccn2c(=O)c1CCN[C@@H](C)c1cccc(-n2cccn2)c1`: the “% Inhibition” value is 0% and the Z score was determined as 0.05.
In the same order, the values of `Cc1cccc(CCNC(=O)N2CCN(c3nccnc3C#N)C[C@@H]2C)n1` are -13% and 1.38.
Turning to `Fc1ccc(N2CCN(Cc3nc4c(s3)CCC4)CC2)cc1`, the “% Inhibition” value worked out at 0% and the Z score is listed as -0.03.
